Measured values reported in PubChem BioAssay AID662 (National Center for Advancing Translational Sciences (NCATS), 2007).
“And” between values parts separate entries of the source, which are not always exact repeats. Identical values can stand only once. The campaign covered roughly 71,000 compounds. About 1,800 (2.5%) were called active. Inconclusive results, whose numbers are uncertain, are shown with a selection of clear calls. The call rests on the fitted dose curve; in most records, active means well fitted activation curve with a large enough effect in the signal ratio, with a control signal flat (not every such curve was filed as active); inconclusive means small, poorly fitted or top-dose-only effect, or effect the other way, or a change in a side signal; inactive means flat fitted curve, though single readings scatter; the % refers to the signal ratio. A potency beside an inconclusive call is a rough fit, not a confirmed value.

assay: Cell signaling CRE-BLA (Fsk stim); conditions: CHO CRE-bla reporter (cAMP response element driving beta-lactamase), forskolin EC10, beta-lactamase ratio; activity change, negative = inhibition: at 38.2 µM (top of the series) unless noted; on activity change, negative = inhibition: % of control where 0% means no effect
In short: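 Beta-lactamase reporter under a cAMP responsive element in CHO cells; compounds tested in titration series against EC10 NKH 477, 3 h at 37 °C. Read-out: CCF4 FRET ratio 460nm/530nm (excitation 405nm) giving %Activity, fitted to AC50.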
Potency means the concentration at half of the fitted maximal effect; tags describe the fitted curve by direction and shape.

SMILES	activity change, negative = inhibition	Potency
O=c1ccc2cc3ccoc3cc2o1	inactive: 15.1%	
Cc1cc(C)c2cc(C#N)c(SCC(=O)NCc3ccco3)nc2c1	inconclusive: -13.7%	
COc1cccc(C(=O)NCCn2ccc3ccccc32)c1		inconclusive: 12.6 µM [rising, single point]
CC1(C)Cc2c(c(=S)nc(-c3ccccc3)n2CCCN2CCOCC2)CO1		inconclusive: 5.01 µM [rising, single point]
CCCc1nc2scc(-c3ccccc3)c2c(=O)n1N	inconclusive: 22.4%	
CCOC(=O)C1CCN(C(=O)c2cnn3c(C)cc(C)nc23)CC1	inconclusive: 16%	
COc1cc(C2C3=C(CC(C)(C)CC3=O)Nc3c2c(=O)[nH]c(=O)n3Cc2ccccc2)ccc1O (centres undefined)	inconclusive: 9.04% and inconclusive: 17.7%	
OCCSc1ncnc2c1oc1ccccc12		inconclusive: 10 µM [rising, single point]
CN1CCc2c(sc3c2C(=O)NC(c2ccc4c(c2)OCO4)N3)C1 (centres undefined)		active: 0.501 µM
Cn1c(CCNC(=O)c2ccco2)nc2cc(NC(=O)c3ccco3)ccc21		inconclusive: 25.1 µM [falling, single point]
CC(C)CCn1c(CN2CCN(Cc3ccccc3)CC2)nc2c1c(=O)n(C)c(=O)n2C		inconclusive: 0.631 µM [rising, full curve]
Clc1ccccc1/C=C\c1ccnc2ccccc12	inactive: -2.51% [at 7.6 µM]	
COc1ccc(OC)c2c(N3CCN(C)CC3)cc(C(F)(F)F)nc12		inconclusive: 10 µM [rising, single point]
CC1(C)Cc2ccccc2C(=NCCCC(=O)O)N1	inconclusive: -19.5%	
Cc1cccc2c1nc(-c1ccccc1)n1cnnc21	inactive: 11.8%	
COc1ccc(Oc2ncc3nc(CCc4ccccc4)c(=O)n(C)c3n2)cc1	inactive: -10%	
CCn1c(NCc2ccccn2)nc2c1c(=O)n(C)c(=O)n2C		inconclusive: 12.6 µM [rising, partial curve]
Cc1cc(C)nc(NC(=O)CN2C(=O)c3ccccc3C2=O)n1		inconclusive: 1.58 µM [falling, partial curve]
COCn1c(-c2cccc(Br)c2)nc2ccccc21		inconclusive: 1.26 µM [rising, partial curve]
CCN(CC)CCCNC(CC(=O)O)C(=O)O (centres undefined)	inactive: -2.63%	
CC(=O)NCCNc1nc(-c2ccc3c(c2)OCO3)nc2ccccc12		inconclusive: 10 µM [rising, partial curve]
Cc1nc2cnc(N3CCOCC3)nc2n(Cc2ccc(F)cc2)c1=O		inconclusive: 2.51 µM [rising, single point]
CCOc1ccccc1C(=O)NCC(=O)OCC(=O)c1ccc2c(c1)OCCO2		inconclusive: 12.6 µM [rising, single point]
COc1ccccc1N(CC(=O)Nc1cccnc1)S(C)(=O)=O	inconclusive: 22.2% [at 7.6 µM]	
NS(=O)(=O)c1ccc(CCNc2nc(CN3CCOCC3)nc3sc4c(c23)CCC4)cc1	inactive: 24.3%	
COCCn1c(=O)c(-c2ccc(F)cc2)nc2cnc(Nc3cccc(OC)c3)nc21		inconclusive: 1.26 µM [rising, full curve, poor fit]
Cc1sc(NC(=O)CSc2nnc(-c3ccc(F)cc3)o2)c(C#N)c1C		inconclusive: 3.16 µM [rising, single point]

SMILES	activity change, negative = inhibition	Potency
O=C(CCN1C(=O)C2C3C=CC(C3)C2C1=O)NCc1cccnc1 (centres undefined)	inconclusive: -18.8%	
Cc1onc(-c2ccccc2Cl)c1C(=O)Nc1ccc(-c2nnc3n2CCCCC3)cc1	inconclusive: -16%	
CS(=O)(=O)N1CCC2(CCN(c3ccncc3)CC2)CC1	inconclusive: -7.03%	
COc1ccccc1CNC(=O)CCCn1c(=O)c2ccccc2n(CC(=O)NC2CCCC2)c1=O	inconclusive: 16%	
CN1CCN(S(=O)(=O)c2ccc(N(C)Cc3cccs3)nc2)CC1	inactive: -10.3%	
Cc1cccc(CNc2ncncc2-c2ccc(C(=O)N(C)C)cc2)c1	inactive: -1.82%	
CCOC(=O)c1c(C)[nH]c2ccc3c(c12)CN1CCc2cc(OC)ccc2[C@@H]1O3	inactive: 7.94%	
COc1c(Br)cc(Br)cc1C(=O)O		inconclusive: 0.0794 µM [falling, single point]
O=c1cc(CNCCCO)c2ccccc2[nH]1	inactive: 16.9%	
O=C(CNC(=O)c1cc2ccccc2o1)NCc1cccs1	inconclusive: -1.67%	
COc1cc(C2NC(=O)NC(O)(C(F)(F)F)C2C(=O)c2ccc(Cl)cc2)ccc1O (centres undefined)	inconclusive: 1.11%	
NC(N)=NN=Cc1c(Cl)cccc1Cl		inactive
Cc1cc(C(=O)CN2C(=O)c3ccccc3C2=O)c(C)n1Cc1cccs1	inactive: 12.1%	
O=C(c1cccc(F)c1)N1CCC2(CCCN(Cc3ccccc3)C2)CC1	inactive: -8.51%	
COc1ccc2cc(CN(CC3COCCO3)S(=O)(=O)c3ccccc3)c(=O)[nH]c2c1 (centres undefined)	inactive: -4.92%	
Cn1c(=O)c2[nH]c(/N=N\N3CCN(CCO)CC3)nc2n(C)c1=O	inactive: -0.495% [at 7.6 µM]	
COCCn1c(CCC(=O)O)nc2c1c(=O)[nH]c(=O)n2CC(C)C	inconclusive: -4.98%	
CN[C@@H]1[C@H](O)[C@H](NC)[C@@H]2O[C@]3(O)C(=O)C[C@@H](C)O[C@H]3O[C@@H]2[C@H]1O	inactive: -5.31%	
O=C(c1ccco1)n1nc(-c2ccccc2)nc1NCc1ccco1	inactive: -4.11%	
COc1cccc2c1OC1(C)CC2/C(=C(\C)O)C(=O)N1 (centres undefined)	inconclusive: -14.9%	
Cc1cccn2cc(-c3ccc(F)cc3)nc12	inactive: 1.05%	
CCO/C=N/c1c(C#N)c(CC#N)nn1-c1ccccc1		inconclusive: 5.01 µM [rising, single point]
CCOc1ccccc1NC(=O)C1CCCN(C(=O)NCc2ccccc2)C1 (centres undefined)	inactive: -5.15%	
C=CCc1ccccc1OCCCCN1CCCC1	inactive: -3.19%	
COCCn1c(SCC(=O)Nc2ncc(C)s2)nc2sc3c(c2c1=O)CCC3		inconclusive: 10 µM [rising, partial curve]
O=C(Nc1ccc(F)c(F)c1)c1ccc2c(c1)OCO2	inactive: -0.308%	
Cn1c(C(=O)O)c(CC(=O)Nc2ccc3c(c2)OCCO3)c2ccccc21	inactive: -2.98%	
